Laboratory results taken from publication PMC4336329 (PLoS ONE, 2015).
Among all 310,000 compounds or so, about 2,200 (0.71%) showed an effect of 50% or more. The effect is printed as a negative number. This is one part of the list.

These compounds were tested against human ether-à-go-go-related gene (hERG) potassium channel (human, UniProt Q12809) (assay: primary screen, population patch clamp on CHO cells stably expressing hERG).
human ether-à-go-go-related gene (hERG) potassium channel, sequence (Q12809 whole entry, looked up): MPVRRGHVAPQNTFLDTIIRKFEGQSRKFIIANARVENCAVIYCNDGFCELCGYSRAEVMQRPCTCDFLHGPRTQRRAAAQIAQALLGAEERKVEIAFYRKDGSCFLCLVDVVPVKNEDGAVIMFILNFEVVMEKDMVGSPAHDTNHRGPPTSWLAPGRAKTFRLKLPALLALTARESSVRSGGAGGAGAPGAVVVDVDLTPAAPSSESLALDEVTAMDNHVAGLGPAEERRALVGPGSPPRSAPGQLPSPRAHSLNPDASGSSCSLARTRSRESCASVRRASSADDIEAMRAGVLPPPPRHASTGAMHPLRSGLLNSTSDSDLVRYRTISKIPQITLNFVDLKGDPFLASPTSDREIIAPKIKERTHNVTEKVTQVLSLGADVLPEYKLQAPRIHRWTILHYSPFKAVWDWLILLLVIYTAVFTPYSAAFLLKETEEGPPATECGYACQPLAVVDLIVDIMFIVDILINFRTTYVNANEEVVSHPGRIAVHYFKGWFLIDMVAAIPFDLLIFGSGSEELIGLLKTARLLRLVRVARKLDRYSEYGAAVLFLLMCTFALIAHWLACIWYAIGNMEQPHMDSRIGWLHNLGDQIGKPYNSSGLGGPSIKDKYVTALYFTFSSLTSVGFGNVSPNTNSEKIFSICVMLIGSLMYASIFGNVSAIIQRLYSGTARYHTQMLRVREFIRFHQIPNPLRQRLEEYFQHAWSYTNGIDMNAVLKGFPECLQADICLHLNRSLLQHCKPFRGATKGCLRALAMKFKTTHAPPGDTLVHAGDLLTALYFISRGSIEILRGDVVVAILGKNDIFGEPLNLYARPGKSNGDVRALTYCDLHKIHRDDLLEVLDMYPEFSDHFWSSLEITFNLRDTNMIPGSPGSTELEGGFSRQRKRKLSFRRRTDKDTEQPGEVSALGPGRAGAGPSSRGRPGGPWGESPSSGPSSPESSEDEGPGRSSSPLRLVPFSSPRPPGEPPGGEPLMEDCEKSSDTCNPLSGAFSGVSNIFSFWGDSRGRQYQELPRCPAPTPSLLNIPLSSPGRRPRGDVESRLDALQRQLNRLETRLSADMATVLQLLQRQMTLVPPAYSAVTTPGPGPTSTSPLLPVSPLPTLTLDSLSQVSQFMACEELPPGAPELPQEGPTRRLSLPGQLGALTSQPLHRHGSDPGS

First: CCCS(=O)(=O)c1nc(S(=O)(=O)c2ccc(C)cc2)c(N2CCCC2)s1
Second: CCc1cc(C(=O)c2ccc(OC)cc2)c(NC(=O)CN2CCCC2)s1
The “hERG current change (%, negative = inhibition) at 1uM” value of the first is higher: 14.5% for the first, 11.6% for the second.

Compared with COc1ccc(C23NCCN2C(=O)c2ccccc23)cc1 (stereo not shown), COc1ccc(N(CC(=O)N2CCN(c3ccccc3F)CC2)S(=O)(=O)c2ccc(C)cc2)cc1 is lower in “hERG current change (%, negative = inhibition) at 1uM” value: 17.1% for the first, 13.8% for the second.

Going from COc1ccc(C(=O)Nc2ncccc2C)cc1S(=O)(=O)N1CCCc2ccccc21 to CCn1c(COc2ccc3ccccc3c2C)nnc1SCC(=O)Nc1cccc(C(=O)O)c1, the “hERG current change (%, negative = inhibition) at 1uM” value falls from 8.54% to -14.6%.

Compared with C#CCSc1nnc(-c2ccccc2)c(=O)[nH]1, O=c1c(NCCc2ccc(Cl)cc2)c(-c2ccccc2)c1=O is lower in “hERG current change (%, negative = inhibition) at 1uM” value: 8.97% for the first, 8.47% for the second.

First: CCOC(=O)CSc1nc2ccc(N3CCOCC3)cc2c(=O)n1Cc1ccc2c(c1)OCO2
Second: CCC1(CC)Cc2ccccc2C(CC(=O)N2CCOCC2)=N1.O=S(=O)(O)O
The “hERG current change (%, negative = inhibition) at 1uM” value of the first is higher: 6.74% for the first, 1.06% for the second.

Compared with COC(=O)c1c(NC(=O)CSc2nc(-c3ccco3)cc(C(F)(F)F)n2)sc2c1CCCC2, COc1ccc(CNC(=O)CN(C(=O)c2csnn2)c2cccc3c2CCCC3)cc1 is lower in “hERG current change (%, negative = inhibition) at 1uM” value: 16.8% for the first, -1.02% for the second.

Going from COC(=O)[C@@]1(Cc2ccc(F)cc2)[C@H]2c3cc(C(=O)N4CCCC4)n(CCc4c[nH]c5ccc(OC)cc45)c3C[C@H]2CN1C(=O)c1ccccc1 to COc1cccc(CC2(CO)CCCN(C/C=C/c3ccccc3OC)C2)c1 (stereo not shown), the “hERG current change (%, negative = inhibition) at 1uM” value falls from 12.8% to -32.8%.

Compared with COc1cc2nc(C3CCC3)n(N)c(=O)c2cc1OC, CCOC(=O)C1CCCN(C(=O)c2sc3nc(-c4ccc(OC)cc4)cn3c2C)C1 (stereo not shown) is lower in “hERG current change (%, negative = inhibition) at 1uM” value: 11.3% for the first, -7.95% for the second.

First: O=C(N/N=C/c1ccco1)c1cc(-c2ccc(Cl)cc2)n[nH]1
Second: NC(=NCCc1c[nH]c2ccccc12)NC(=O)c1ccc(Cl)cc1
The “hERG current change (%, negative = inhibition) at 1uM” value of the first is lower: 5.92% for the first, 7.8% for the second.

First: O=C1NC(=O)N(c2ccccc2)C(=O)/C1=C\c1ccc2c3c(cccc13)CC2
Second: O=C1c2cccc3c(O)ccc(c23)C(=O)N1Cc1ccccc1
The “hERG current change (%, negative = inhibition) at 1uM” value of the first is lower: 8.05% for the first, 10.5% for the second.

Compared with O=c1sc2ccccc2n1Cc1ccccc1, Cc1nc(NCc2ccccn2)c2ccccc2n1.Cl is higher in “hERG current change (%, negative = inhibition) at 1uM” value: 4.61% for the first, 12.5% for the second.

First: CC1=CC2=NC(=O)/C(=C/c3coc4ccccc4c3=O)C(=N)N2O1
Second: O=C(Nc1ccc(-c2nc3ccccc3o2)cc1)c1ccc(N2C(=O)C3C4C=CC(C4)C3C2=O)cc1 (stereo not shown)
The “hERG current change (%, negative = inhibition) at 1uM” value of the first is higher: 10.7% for the first, 4.62% for the second.

Compared with Cc1ccc(S(=O)(=O)NC(CC(=O)NCC2CCCO2)c2ccco2)cc1 (stereo not shown), O=C(NCC1CCCO1)c1cccs1 (stereo not shown) is lower in “hERG current change (%, negative = inhibition) at 1uM” value: 17.3% for the first, 0.613% for the second.

First: COc1cccc(OCCc2c(C)n[nH]c2C)c1.Cl
Second: COc1cccc(NC2=Nc3cccc4cccc2c34)c1
The “hERG current change (%, negative = inhibition) at 1uM” value of the first is lower: 4.51% for the first, 13.9% for the second.

Going from CN(CC1COc2ccccc2O1)C(=S)Nc1ccccc1F (stereo not shown) to COc1cc(/C=N/NC(=O)c2ccccc2O)ccc1OCC(=O)Nc1ccccc1, the “hERG current change (%, negative = inhibition) at 1uM” value rises from 8.66% to 25.8%.

First: COc1ccc(CC(=O)OCC(=O)NCCNC(=O)COC(=O)Cc2ccc(OC)cc2)cc1
Second: Cc1ccc(C(=O)c2ccccc2C(=O)OCC(=O)N2C(C)CCCC2C)cc1 (stereo not shown)
The “hERG current change (%, negative = inhibition) at 1uM” value of the first is higher: 7.38% for the first, 3.92% for the second.

Going from CCOC(=O)/C(=C\Nc1ccccc1C(F)(F)F)Sc1ncc(C(F)(F)F)cc1Cl to COC(=O)C(C)(C)ONC(=O)Nc1ccccc1Cl, the “hERG current change (%, negative = inhibition) at 1uM” value rises from 7.07% to 39.7%.

First: Cc1ccsc1CNCc1cc(Cl)ccc1O.Cl
Second: C=CCNC(=O)CCCOc1ccc(C)cc1
The “hERG current change (%, negative = inhibition) at 1uM” value of the first is higher: 5.98% for the first, 1.88% for the second.

Compared with CC1CC(NS(=O)(=O)c2cccs2)CC(C)(C)C1 (stereo not shown), CC(C(=O)NCC1(c2ccccc2)CCCC1)N1CCCC1.Cl (stereo not shown) is lower in “hERG current change (%, negative = inhibition) at 1uM” value: 10.6% for the first, -3.37% for the second.

First: CCOc1ccc(NC(=O)CN(C)C(=O)COc2cccc3c2OC(C)(C)C3)cc1OCC
Second: CCCCC(=O)N1CCN(c2nc3ccc(Br)cc3s2)CC1
The “hERG current change (%, negative = inhibition) at 1uM” value of the first is higher: 4.3% for the first, -9.61% for the second.

First: COCCn1c(-c2ccc(Br)cc2)csc1=Nc1cccnc1
Second: O=C(NC1CCCCC1)C(=S)NCCc1ccccc1
The “hERG current change (%, negative = inhibition) at 1uM” value of the first is higher: 7.48% for the first, 4.31% for the second.

For CC(NC(=O)NC(N)=O)(C(F)(F)F)C(F)(F)F, the “hERG current change (%, negative = inhibition) at 1uM” value was 9.7%.
